In patent publication US10815297B2, “Antagonists of IL17C for the treatment of inflammatory disorders” (MorphoSys AG, priority 2011, dated 2020):

Test: Stability in mouse serum
Type: in vitro ADME
Conditions: chimeric IgG2a, 100 μg/mL, 24 h at 37° C. in mouse serum, binding to biotin-IL17C
Method: 96 well Maxisorp plates (Nunc; #442404) were coated with avidin at a concentration of 1 μg/ml in PBS overnight at 4° C. The next day, anti-IL17 chimeric IgG2a were incubated in mouse serum for 24 h at 37° C. at a final concentration 100 μg/mL. After the incubation step the antibodies were diluted 1:100 in LowCross buffer (Candor Bioscience; #100500). As a reference the same set of antibodies were freshly diluted in LowCross buffer+1% mouse serum and incubated for 30 min at RT. Avidin coated plates were incubated with blocking buffer (Superblock blocking buffer from Pierce, #37515) and subsequently 100 μL of 0.1 μg/mL biotin-IL17C in LowCross buffer was added to blocked wells. After a washing step a serial dilution of the serum-incubated and freshly diluted IgGs was added. Binding of IgGs was detected by anti-mouse-IgG2a POD conjugated detection antibody (diluted 1:5000 in LowCross buffer) using TMB One Component HRP as substrate. The reaction was stopped by adding 1M HCl and absorbance was measured at 450 nm.

B1: MOR12760: anti-mouse IL17C HuCAL antibody; CDRs SEQ ID NO: 151-156, VL 157, VH 158 (antibody, V domains shown)
VH: EVQLVQSGAEVKKPGESLKISCKGSGYSFNNYWIAWVRQMPGKGLEWMGFIYPSNSATQYSPSFQGQVTISADKSISTAYLQWSSLKASDTAMYYCARDNEYSDSYFDVWGQGTLVTVSS
VL: DIVLTQSPATLSLSPGERATLSCRASQIVSSYLAWYQQKPGQAPRLLIYDASSRATGIPARFSGSGSGTDFTLTISSLEPEDFATYYCQQSVKSNTFGQGTKVEIKRT
modifications: VH; VL
- stability in mouse serum: only moderate serum stability
